Experimental data as given in patent US10519247B2, “Targeting HER2 and HER3 with bispecific antibodies in cancerous cells” (Board of Regents, The University of Texas System, priority 2013, dated 2019).

Experiments:
[1] = In vivo half-life (β-phase) in BALB/c SCID mice
SK-BR-3 cells [2] = assay: Proliferation assay (MTS), SK-BR-3; type: cell-based, human; conditions: 5 days
Procedure: (§1) Cells were plated in 96 well plates at a density of 2,500 cells per well and incubated overnight. […] Antibodies were used at a concentration of 50 nM unless otherwise indicated. Dimethyl sulfoxide or phosphate buffered saline (PBS) were used as vehicle controls for lapatinib or HRG-β1/antibodies, respectively. After 5 days of incubation in a 37° C. 5% CO2 incubator, cell proliferation was quantitated using CellTiter 96 AQeous One Solution Proliferation Assay kit (Promega, catalog no. G3580) according to the manufacturer's instructions.

BT-474 cells [3] = assay: Proliferation assay (MTS), BT-474; type: cell-based, human; conditions: 5 days
Procedure: as §1

HCC1419 cells [4] = assay: Proliferation assay (MTS), HCC1419; type: cell-based, human; conditions: 5 days
Procedure: as §1

SK-BR-3 cells [5] = assay: Immunoblotting of cell lysates, SK-BR-3; type: cell-based, human
Procedure: (§2) Cells cultured to near confluence in 6 well plates were treated with lapatinib, HRG-β1 or antibodies as for proliferation assays. Following one or 24 hours incubation, cells were lysed using RIPA buffer (50 mM Tris, 150 mM NaCl, 0.5% sodium deoxycholate, 1% Triton X-100, 0.1% sodium dodecyl sulfate, 2 ug/mL aprotinin, 2 ug/mL leupeptin, 1 ug/mL pepstatin A, and 0.4 mg/mL pefabloc SC PLUS). Lysates were centrifuged for 20 minutes at 14,600 rpm at 4° C. and supernatants were collected. Protein concentrations in each lysate were determined using the BCA protein assay reagent (Pierce, catalog no. 23223). Total lysates were fractionated by SDS-PAGE and transferred onto polyvinylidene difluoride (PVDF) membranes (Millipore, catalog no. IPVH00010) or nitrocellulose membranes (Bio-Rad, catalog no 162.0145). Membranes were incubated with 5% bovine serum albumin in Tris-buffered saline with 0.1% Tween (TBST, pH 8.0) for 1 hour following transfer to block non-specific binding sites. Blocked membranes were incubated with primary antibodies overnight at 4° C. with agitation. Prior to incubation with the secondary antibodies conjugated to horseradish peroxidase, blots were washed three times (10 minutes/wash) with TB ST. Following incubation with secondary antibodies for 1 hour and washing, bound secondary antibody was detected using chemiluminescent detection regent (GE Healthcare, catalog no. RPN 2209/AF).

BT-474 cells [6] = assay: Immunoblotting of cell lysates, BT-474; type: cell-based, human; conditions: 50 nM antibody
Procedure: as §2, with “Prior to incubation with the secondary antibodies conjugated to horseradish peroxidase, blots were washed three times (10 minutes/wash) with TB ST.” left out

HCC1419 cells [7] = assay: Immunoblotting of cell lysates, HCC1419; type: cell-based, human; conditions: 50 nM antibody + 1 μM lapatinib + heregulin 6.25 nM, 24 hours
SK-BR-3 cells [8] = assay: Fluorescence microscopy of intracellular trafficking; type: cell-based, human; conditions: 50 nM
Text: The combined pulse plus chase times are indicated on the left margin. Anti-HER3 or HER2/HER3 antibodies were detected with Alexa 555-labeled secondary antibody (pseudocolored red in overlay) and anti-EEA-1 antibody with Alexa 647-labeled secondary antibody (pseudocolored green in overlay). […] Scale bars=2 μm.
Cells were fixed, permeabilized and stained for LAMP-1. Anti-HER3 or HER2/HER3 antibodies were detected with Alexa 555-labeled secondary antibody (pseudocolored red in overlay) and anti-LAMP-1 antibody with Alexa 488-labeled secondary antibody (pseudocolored green in overlay). […] Scale bars=2 μm.
For fixation, cells were treated with 1.7% (w/v) paraformaldehyde for 10 minutes at 37° C. and then permeabilized with 0.05% (v/v) saponin for 10 minutes at room temperature in PBS. A pre-block with 4% BSA/PBS was carried out prior to staining with 2 μg/mL of polyclonal rabbit anti-LAMP-1 antibody (Abcam, catalog no. AB24170) and 12.5 μg/mL monoclonal mouse anti-EEA-1 (clone 14) from BD Bioscience (catalog no. 610456) for 30 minutes at room temperature. After blocking for 30 minutes with goat serum (Sigma-Aldrich, catalog no. G6767), bound primary antibodies were detected by incubating cells with the following secondary antibody conjugates for 25 minutes at room temperature: Alexa 555-labeled goat anti-human IgG (H+L) (Life Technologies, catalog no. A21433), Alexa 647-labeled goat anti-mouse IgG (H+L) (Life Technologies, catalog no. A21236) and Alexa 488-labeled goat anti-rabbit IgG (H+L) (Life Technologies, catalog no. A11034). Cells were washed twice with PBS between each incubation step and were stored at 4° C. in 1% BSA/PBS.
Images were acquired using a Zeiss Axiovert 200M inverted fluorescence microscope with a 63× Plan Apochromat objective as described previously. Data was processed using custom written software in MatLab (MIAtool/LABSoft; www.wardoberlab.com/software/miatool/).

[9] = 50 nM antibody + 1 μM lapatinib + heregulin 6.25 nM
[10] = 50 nM antibody, no heregulin, no lapatinib
[11] = 50 nM antibody + heregulin 6.25 nM

B1: Ab6tet: tetrameric (tetravalent) anti-HER3 antibody: Ab6 scFv fused to the CH3 domains of Ab6 via a Gly-Ser-Ser linker (antibody)
heavy: QVQLQESGGGLVQPGGSLRLSCAASGFTFSHYVMAWVRQAPGKGLEWVSSISSSGGWTLYADSVKGRFTISRDNSKNTLYLQMNSLRAEDTAVYYCTRGLKMATIFDYWGQGTLVTVSS[in this place human IgG1 constant region]GSSQVQLLESGGGLVQPGGSLRLSCAASGFTFSHYVMAWVRQAPGKGLEWVSSISSSGGWTLYADSVKGRFTISRDNSKNTLYLQMNSLRAEDTAVYYCTRGLKMATIFDYWGQGTLVTVSSGGGGSGGGGSGGGGSDIQLTQPASVSGSPGQSITISCTGTSSDVGSYNVVSWYQQHPGKAPKLIIYEVSQRPSGVSNRFSGSKSGNTASLTISGLQTEDEADYYCCSYAGSSIFVIFGGGTKVTVL
light: DIELTQPASVSGSPGQSITISCTGTSSDVGSYNVVSWYQQHPGKAPKLIIYEVSQRPSGVSNRFSGSKSGNTASLTISGLQTEDEADYYCCSYAGSSIFVIFGGGTKLEIKRTVAAPSVFIFPPSDEQLKSGTASVVCLLNNFYPREAKVQWKVDNALQSGNSQESVTEQDSKDSTYSLSSTLTLSKADYEKHKVYACEVTHQGLSSPVTKSFNRGEC
- in vivo half-lives (β-phase) [1]: 228 ± 14 h
- proliferation in the presence of heregulin and lapatinib (SK-BR-3 cells [2]; [9]): more effective than Ab6
- proliferation (SK-BR-3 cells [2]; [10]): reduced proliferation
- proliferation in the presence of heregulin and lapatinib (BT-474 cells [3]; [9]): anti-proliferative effects
- proliferation in the presence of heregulin (BT-474 cells [3]; [11]): ablated the inhibitory effects
- proliferation (BT-474 cells [3]; [10]): the effects were not significant
- proliferation in the presence of heregulin and lapatinib (HCC1419 cells [4]; [9]): more effective than Ab6
- proliferation in the presence of heregulin (HCC1419 cells [4]; [11]): ablated the inhibitory effects
- proliferation (HCC1419 cells [4]; [10]): reduced proliferation
- HER3 degradation (total HER3) in the presence of heregulin and lapatinib (SK-BR-3 cells [5]; 50 nM antibody + 1 μM lapatinib + 6.25 nM heregulin, 3 or 6 hours, compared with Ab6): higher levels of HER3 degradation
- pAkt levels in the presence of heregulin (SK-BR-3 cells [5]; 50 nM antibody + heregulin 6.25 nM, 24 hours): a reduction
- levels of pHER3, pErk and pAkt (S473, T308) (SK-BR-3 cells [5]; 50 nM antibody + lapatinib + heregulin 6.25 nM): lower levels
- HER3 degradation (total HER3) at 3 or 9 hours (SK-BR-3 cells [5]; 50 nM antibody, compared with Ab6): higher levels of HER3 degradation
- total HER3 levels / HER3 degradation at 24 hours (SK-BR-3 cells [5]; 50 nM antibody, no heregulin): increased degradation
- pErk levels at one hour (SK-BR-3 cells [5]; 50 nM antibody, one hour, versus trastuzumab, pertuzumab, TAb6 or PAb6, not sustained at 24 hours): lower
- total HER3 levels / HER3 degradation at 24 hours (BT-474 cells [6]; no heregulin): increased degradation
- pErk levels at one hour (BT-474 cells [6]; one hour, versus trastuzumab, pertuzumab, TAb6 or PAb6, not sustained at 24 hours): lower
- levels of pHER3, pErk and pAkt (S473, T308) (HCC1419 cells [7]): lower levels
- localization following 15 minutes of treatment (SK-BR-3 cells [8]): internalized into early endosomes
- rate of internalization into EEA-1 positive early endosomes (SK-BR-3 cells [8]): more rapidly than Ab6
- time of treatment within which antibody enters EEA-1 positive early endosomes (SK-BR-3 cells [8]; 37° C.): ≤ 5 min
- localization within one hour of treatment (SK-BR-3 cells [8]; 15 minutes pulse, 45 minutes chase): present in LAMP-1+ lysosomes
